Experimental data taken from patent US20250115571A1, “OXOPIPERAZINE DERIVATIVES” (Inthera Bioscience AG, priority 2017, published 2025).
The name of at least one read-out is uncertain. Marks after values point to notes of the source that are not given here.

These molecules were tested on CaSki cells (assay: Colony Formation Assay (CFA), 14 days). Settings: colony formation assay, class by % inhibition at 0.7, 6 or 50 μM.
Type: cell-based, human

Structure (SMILES) | Activity (inhibition of colony formation)
CC(C)C[C@@H]1NCCN([C@@H](CC(C)C)C(=O)N2CCC(C3CCN(C)CC3)CC2)C1=O [Compound 65, (S)-1-{(S)-3-Methyl-1-[(1′-methyl-4,4′-bipiperidyl-1-yl)carbonyl]butyl}-3-isobutyl-2-piperazinone] | +++ (more than 90% inhibition of colony formation at a concentration of 50 μM)
CC(C)C[C@@H]1NCCN([C@@H](CC(C)C)C(=O)N2CCC(CCc3ccccc3)CC2)C1=O [Compound 10, (S)-1-{(S)-3-Methyl-1-[(4-phenethyl-1-piperidyl)car-bonyl]butyl}-3-isobutyl-2-piperazinone] | +++ (more than 90% inhibition of colony formation at a concentration of 50 μM)
CC(C)C[C@@H]1NCCN([C@@H](CC(C)C)C(=O)N2CCC(CCN3CCC4(CC3)CC4)CC2)C1=O [Compound 282, (S)-1-[(S)-1-[(4-{2-(6-Aza-6-spiro[2.5]octyl)eth-yl}-1-piperidyl)carbonyl]-3-methylbutyl]-3-isobutyl-2-piperazinone] | ++++ (more than 90% inhibition of colony formation at a concentration of 6 μM)
CC(C)C[C@@H]1NCCN([C@@H](CC(C)C)C(=O)N2CCC(CC3CCCN3C)C[C@@H]2C)C1=O (stereo partly drawn) [Compound 295, (S)-1-[(S)-1-({(2S)-2-Methyl-4-[(1-methyl-2-pyrrolidinyl)methyl]-1-piperidyl}carbonyl)-3-methylbutyl]-3-isobutyl-2-piperazinone] | *+ (greater than 0% but less than or equal to 50% inhibition of colony formation at a concentration of 0.7 μM)
CC(C)CC1CCN(C(=O)[C@H](CC2CC2)N2CCN[C@@H](CC(C)(C)C)C2=O)CC1 [Compound 133, (S)-1-[(S)-1-(Cyclopropylmethyl)-2-(4-isobutyl-1-piperidyl)-2-oxoethyl]-3-neopentyl-2-piperazinone] | +++ (more than 90% inhibition of colony formation at a concentration of 50 μM)
CC(C)C[C@@H]1NCCN([C@@H](CC(C)C)C(=O)N2CCC3(CCC(CN(C)C)CC3)CC2)C1=O [Compound 256, (S)-1-[(S)-1-({9-[(Dimethyl-amino)methyl]-3-aza-3-spiro[5.5]un-decyl}car-bonyl)-3-methylbutyl]-3-isobutyl-2-piperazinone] | ++++ (more than 90% inhibition of colony formation at a concentration of 6 μM)
CC(C)C[C@@H]1NCCN([C@@H](CC(C)C)C(=O)N2CCC([C@]3(C)NC(=O)NC3=O)CC2)C1=O [Compound 73, (S)-5-(1-{(S)-2-[(S)-3-Isobutyl-2-oxo-1-piperazinyl]-4-methylvaleryl}-4-piperidyl)-5-methyl-2,4-imidazolidinedione] | +* (greater than 0% but less than or equal to 50% inhibition of colony formation at a concentration of 50 μM)
CC(C)C[C@@H]1NCCN([C@@H](CC(C)C)C(=O)N2CCC(CCN3CCC[C@H](C)C3)CC2)C1=O [Compound 267, (S)-1-[(S)-1-[(4-{2-[(S)-3-Methyl-1-piperidyl]ethyl}-1-piperidyl)carbonyl]-3-methylbutyl]-3-isobutyl-2-piperazinone] | ++++ (more than 90% inhibition of colony formation at a concentration of 6 μM)
CC(C)C[C@@H]1NCCN([C@@H](CC(C)C)C(=O)N2CCC3(CC2)CC3CN(C)C)C1=O (stereo partly drawn) [Compound 233, (S)-1-[(S)-1-({1-[(Dimethyl-amino)methyl]-6-aza-6-spiro[2.5]octyl}car-bonyl)-3-methylbutyl]-3-isobutyl-2-piperazinone] | +++ (more than 90% inhibition of colony formation at a concentration of 50 μM)
CCOC(=O)C1(C)CCN(C(=O)[C@H](CC(C)C)N2CCN[C@@H](CC(C)C)C2=O)CC1 [Compound 3, Ethyl 1-{(S)-2-[(S)-3-isobutyl-2-oxo-1-piperazinyl]-4-methylvaleryl}-4-methyl-4-piperidinecarboxylate] | ++ (more than 50% inhibition of colony formation at a concentration of 50 μM)
CCCC[C@@H](C(=O)N1CCC(CC(N)=O)CC1)N1CCN[C@@H](CCC)C1=O [Compound 129, (1-{(S)-2-[(S)-2-Oxo-3-propyl-1-piperazinyl]hex-anoyl}-4-piperidyl)acetamide] | +* (greater than 0% but less than or equal to 50% inhibition of colony formation at a concentration of 50 μM)
CC(C)C[C@@H](C(=O)N1CCC(CC(N)=O)CC1)N1CCN[C@@H](CC2CC2)C1=O [Compound 91, (1-{(S)-2-[(S)-3-(Cyclopropylmethyl)-2-oxo-1-piperazinyl]-4-methylvaleryl}-4-piperidyl)acetamide] | +* (greater than 0% but less than or equal to 50% inhibition of colony formation at a concentration of 50 μM)
COCCN1CCN([C@@H](CC(C)C)C(=O)N2CCC(Cc3nccn3C)CC2)C(=O)[C@@H]1CC(C)C [Compound 9, (S)-1-[(S)-3-Methyl-1-({4-[(1-methyl-1H-imidazol-2-yl)methyl]-1-piperidyl}car-bonyl)butyl]-3-isobutyl-4-(2-methoxyethyl)-2-piperazinone] | +++ (more than 90% inhibition of colony formation at a concentration of 50 μM)
Cc1cnc(CC2CCN(C(=O)[C@H](CC(C)C)N3CCN[C@@H](CC(C)C)C3=O)CC2)n1C [Compound 19, (S)-1-[(S)-3-Methyl-1-({4-[(1-methyl-5-methyl-1H-imidazol-2-yl)methyl]-1-piperidyl}car-bonyl)butyl]-3-isobutyl-2-piperazinone] | ++ (more than 50% inhibition of colony formation at a concentration of 50 μM)
CC(C)C[C@@H](C(=O)N1CCC(Cc2nccn2C)CC1)N1CCN(C2CC2)[C@@H](CC(C)C)C1=O [Compound 87, (S)-1-[(S)-3-Methyl-1-({4-[(1-methyl-1H-imidazol-2-yl)methyl]-1-piperidyl}car-bonyl)butyl]-4-cyclopropyl-3-isobutyl-2-piperazinone] | +++ (more than 90% inhibition of colony formation at a concentration of 50 μM)
CC(=O)NCC1CCN(C(=O)[C@H](CC(C)C)N2CCN[C@@H](CC(C)C)C2=O)CC1 [Compound 68, (S)-1-[(S)-1-{[4-(Acetylaminometh-yl)-1-piperidyl]car-bonyl}-3-methylbutyl]-3-isobutyl-2-piperazinone] | +* (greater than 0% but less than or equal to 50% inhibition of colony formation at a concentration of 50 μM)
CC(C)C[C@@H]1NCCN([C@@H](CC(C)C)C(=O)N2CCC3(C[C@@H]2C)OCC(n2cccn2)CO3)C1=O (stereo partly drawn) [Compound 301, (S)-1-[(S)-1-({(S)-8-Methyl-3-(1H-pyrazol-1-yl)-1,5-dioxa-9-aza-9-spiro[5.5]un-decyl}carbonyl)-3-methylbutyl]-3-isobutyl-2-piperazinone] | *+ (greater than 0% but less than or equal to 50% inhibition of colony formation at a concentration of 0.7 μM)
CC(C)C[C@@H]1NCCN([C@@H](CC(C)C)C(=O)N2CCC3(C[C@@H]2C)OCC(CN2CCC4(CC2)CC4)CO3)C1=O (stereo partly drawn) [Compound 279, (3S)-1-[(2S)-4-methyl-1-oxo-1-[(3s,6s,8S)-3-{6-azaspiro[2.5]octan-6-ylmethyl}-8-methyl-1,5-dioxa-9-azaspiro[5.5]undec-an-9-yl]pentan-2-yl]-3-(2-methylpropyl)piper-azin-2-one (^≠), isomer Z] | ++++ (more than 90% inhibition of colony formation at a concentration of 6 μM)
CC(C)CCN(C)C(=O)CC1CCN(C(=O)[C@H](CC2CC2)N2CCN[C@@H](CC3CC3)C2=O)CC1 [Compound 34, (S)-1-[(S)-2-(4-{2-[N-Methyl(isopentyl)amino]-2-oxoethyl}-1-piperidyl)-1-(cyclopropylmethyl)-2-oxoethyl]-3-(cyclopropylmethyl)-2-piperazinone] | +* (greater than 0% but less than or equal to 50% inhibition of colony formation at a concentration of 50 μM)

Same assay, conditions: inhibition of colony formation, 14 days, classes at 6, 50 or 0.7 μM

Structure (SMILES) | Activity
CC(C)C[C@@H]1NCCN([C@@H](CC(C)C)C(=O)N2CCC(CC(=O)OC(C)C)CC2)C1=O [Compound 195, Isopropyl (1-{(S)-2-[(S)-3-isobutyl-2-oxo-1-piperazinyl]-4-methylvaleryl}-4-piperidyl)acetate] | ++ (more than 50% inhibition of colony formation at a concentration of 50 μM)
CC(C)C[C@@H]1NCCN([C@@H](CC(C)C)C(=O)N2CCC(CC(=O)N(C)CCc3ccccc3)CC2)C1=O [Compound 153, (S)-1-[(S)-1-[(4-{2-[N-Methyl(phenethyl)a-mino]-2-oxoethyl}-1-piperidyl)carbonyl]-3-methylbutyl]-3-isobutyl-2-piperazinone] | ++ (more than 50% inhibition of colony formation at a concentration of 50 μM)
CC(C)C[C@@H]1NCCN([C@@H](CC(C)C)C(=O)N2CCC(C(=O)O)CC2)C1=O [Compound 211, 1-{(S)-2-[(S)-3-Isobutyl-2-oxo-1-piperazinyl]-4-methylvaleryl}-4-piperidinecarboxylic acid] | +* (greater than 0% but less than or equal to 50% inhibition of colony formation at a concentration of 50 μM)
CC(=O)OC1CCN(C(=O)[C@H](CC(C)C)N2CCN[C@@H](CC(C)C)C2=O)CC1 [Compound 144, 1-{(S)-2-[(S)-3-Isobutyl-2-oxo-1-piperazinyl]-4-methylvaleryl}-4-piperidyl acetate] | +* (greater than 0% but less than or equal to 50% inhibition of colony formation at a concentration of 50 μM)
CC(C)C[C@@H]1NCCN([C@@H](CC(C)C)C(=O)N2CCC(CCN(C)C(C)C)CC2)C1=O [Compound 163, (S)-1-[(S)-1-[(4-{2-[N-Methyl(isopropyl)a-mino]ethyl}-1-piperidyl)carbonyl]-3-methylbutyl]-3-isobutyl-2-piperazinone] | ++ (more than 50% inhibition of colony formation at a concentration of 50 μM)
CCC(CC)NC(=O)CC1CCN(C(=O)[C@H](CC(C)C)N2CCN[C@@H](CC(C)C)C2=O)CC1 [Compound 180, (S)-1-[(S)-1-({4-[2-(1-Ethylpropylamino)-2-oxoethyl]-1-piperidyl}carbonyl)-3-methylbutyl]-3-isobutyl-2-piperazinone] | ++ (more than 50% inhibition of colony formation at a concentration of 50 μM)
